# Measurements published in patent publication US7041851B2, “Fluorinated phenyl thiophenyl derivatives and their use for imaging serotonin transporters” (The Trustees of the University of Pennsylvania, priority 2002, dated 2006).
# Legend:
# [1] = target: T1, DAT (dopamine transporter) (Rattus norvegicus, UniProt P23977); test: In vitro binding assay, LLC-PK1 cell membranes overexpressing DAT, [125I]IPT; settings: LLC-PK1 membrane homogenates, mean ± SEM of three determinations
# T1 construct: expressed in transfected cells; host or cells: LLC-PK1
# T1 sequence (P23977 whole entry): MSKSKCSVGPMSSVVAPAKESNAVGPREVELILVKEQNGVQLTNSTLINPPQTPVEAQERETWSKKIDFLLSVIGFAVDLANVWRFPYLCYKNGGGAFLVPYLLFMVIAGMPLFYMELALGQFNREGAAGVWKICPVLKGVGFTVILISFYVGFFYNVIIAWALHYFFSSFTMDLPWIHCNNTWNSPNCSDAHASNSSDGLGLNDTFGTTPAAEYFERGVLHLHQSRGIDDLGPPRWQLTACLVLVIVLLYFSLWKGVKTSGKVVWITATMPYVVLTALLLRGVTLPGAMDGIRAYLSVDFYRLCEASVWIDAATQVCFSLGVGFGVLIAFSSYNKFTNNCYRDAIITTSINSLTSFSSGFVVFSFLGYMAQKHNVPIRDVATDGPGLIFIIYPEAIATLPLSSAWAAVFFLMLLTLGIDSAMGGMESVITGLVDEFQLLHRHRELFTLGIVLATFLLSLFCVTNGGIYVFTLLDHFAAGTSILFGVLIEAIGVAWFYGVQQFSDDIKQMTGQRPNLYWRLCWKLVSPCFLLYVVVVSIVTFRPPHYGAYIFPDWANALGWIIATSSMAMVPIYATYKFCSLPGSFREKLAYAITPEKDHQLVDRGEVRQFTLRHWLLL
# Protocol: (§1) However, it metabolized rapidly in the blood.
# (§2) In an in vitro binding assay using LLC-PK1 cells over expressing three different types of monoamine transporters (SERT, DAT or NET, respectively) and well-characterized ligands, [^125I]IPT and [^125I]IDAM, the binding affinity of each transporter was evaluated.
# [2] = target: T2, NET (norepinephrine transporter) (Homo sapiens, UniProt P23975); test: In vitro binding assay, LLC-PK1 cell membranes overexpressing NET, [125I]IPT; settings: LLC-PK1 membrane homogenates, mean ± SEM of three determinations
# T2 construct: expressed in transfected cells; host or cells: LLC-PK1
# Protocol: as §1, §2
# [3] = target: T3, SERT (serotonin transporter) (Rattus norvegicus, UniProt P31652); test: In vitro binding assay, LLC-PK1 cell membranes overexpressing SERT, [125I]IDAM; settings: for Binding affinity and selectivity: SERT versus DAT, NET
# T3 construct: expressed in transfected cells; host or cells: LLC-PK1
# Protocol: as §1, §2
# SERT [4] = target: SERT (Homo sapiens, UniProt P31645); settings: Oya et al. 2001; Huang et al. 2001b; read-out: Ki SERT (literature); cited from earlier work
# SERT [5] = target: T4, SERT (Rattus norvegicus, UniProt P31652); settings: rats, cited from earlier work
# T4 construct: from tissue; host or cells: rat brain in vivo (hypothalamus, striatum, hippocampus, cerebellum)
# SERT [6] = target: T4, SERT; test: Blocking studies of 4-[18F]-ADAM uptake in rat brain regions; type: in vivo, rats
# Excerpt: as §1
# SERT [7] = test: Baboon study of 4-[18F]-ADAM
# [8] = In vivo metabolism of 4-[18F]ADAM in rats
# Excerpt: as §1
# [9] = Biodistribution of 4-[18F]-ADAM (12a) in rats; type: in vivo
# Excerpt: as §1
# [10] = cited from earlier work
# [11] = LLC-PK1 membrane homogenates, [125I]IDAM, mean ± SEM of three determinations
compound,measurement,setting,value
"2-(4-Chloro-5-fluoro-2-nitro-phenylthio)-N,N-dimethyl-benzenethanamine [Compound 21]",Ki,[1],31900 nM
same,Ki,[2],2810 nM
same,Ki,[3]; [11],4.16 ± 0.33 nM
same,Binding affinity and selectivity,[3],good binding affinity and selectivity
"2-(5-Amino-4-chloro-2-nitro-phenylthio)-N,N-dimethyl-benzamide [Compound 18]",Ki,[1],3050 nM
same,Ki,[2],15000 nM
same,Ki,[3]; [11],2.39 ± 0.54 nM
same,Binding affinity and selectivity,[3],good binding affinity and selectivity
CN(C)Cc1ccccc1Sc1ccc(CF)cc1N [AFM],Ki,SERT [4],1.8 nM
"CN(C)Cc1ccccc1Sc1ccc(F)cc1N [Compound 12, N,N-Dimethyl-2-(2-amino-4-fluorophenylthio)benzylamine]",Brain uptake and specific binding,"SERT [5]; 11C-labelled, Huang et al., 2001b",excellent brain uptake and a high degree of specific binding
same,Ki,[3]; […],0.081 nM
same,melting point,,56 to 58 °C
"CN(C)Cc1ccccc1Sc1ccc([18F])cc1N [Compound 12a, N,N-Dimethyl-2-(2-amino-4-[^18F]fluorophenylthio)benzylamine]","Uptake in hypothalamus, hippocampus and striatum after pretreatment",SERT [6]; rats pre-treated with methylphenidate,no significant changes
same,"Uptake in hypothalamus, hippocampus and striatum after pretreatment",SERT [6]; rats pre-treated with nisoxetine,no significant changes
same,"Uptake in hypothalamus, hippocampus and striatum after pretreatment","SERT [6]; rats pretreated with (+)McN 5652, 2 mg/kg 5 min prior to IV injection",significant decreases
same,Uptake in the skull (in vivo defluorination),SERT [7],did not increase with time
same,"Radioactivity recovered as parent compound, brain",[8]; rat brain,> 96%
same,"Radioactivity recovered as parent compound, plasma",[8]; rat plasma,< 7%
same,Uptake in rat brain,[9]; preliminary biodistribution study in rats,~1 %/g
same,"Initial uptake in blood, muscle, lung, kidney and liver",[9]; rats,"also high, but it cleared rapidly"
same,Radioactivity in the femur (in vivo defluorination),[9]; rats,increases with time
same,Brain uptake,"[9]; rats, 2 min after i.v. injection",2.13 % dose/organ
same,Brain uptake,"[9]; rats, 30 min after i.v. injection",1.90 % dose/organ
same,Brain uptake,"[9]; rats, 60 min after i.v. injection",0.95 % dose/organ
same,"Specific binding, hypothalamus-cerebellum/cerebellum","[9]; rats, 2 h post-injection (peak)",12.49
same,Time of peak specific binding,"[9]; rats, post-injection",2 h
CN(C)Cc1ccccc1Sc1cc(F)c(Cl)cc1N [Compound 25],Ki,[1],3020 nM
same,Ki,[3]; [11],0.05 ± 0.01 nM
same,"Binding affinities to the other monoamine transporters, fold lower than SERT",[3]; SERT versus DAT and NET,more than 1000 fold
CN(C)Cc1ccccc1Sc1ccc(I)cc1CF [F-IDAM],Brain uptake and binding properties,"SERT [5]; Oya et al., 2001",excellent initial brain uptake and binding properties
same,Defluorination in baboon,[10],defluorinated rapidly
same,Ki,SERT [4],0.003 nM
